Variants at the floor of the assay are shown more often than the library holds them.

B1: TPR 5TU (parent)
chain: GGAUCUUCUCGAUCUAACAAAAAAGACAAAUCUGCCACAAAGCUUGAGAGCAUCUUCGGAUGCAGAGGCGGCAGCCUUCGGUGGCGCGAUAGCGCCAACGUUCUCAACUAUGACACGCAAAACGCGUGCUCCGUUGAAUGGAGUUUAUCAUG

In this data set the parent is B1. Description: polymerase ribozyme fitness, log enrichment relative to wild type (log ratio); higher = more active; in vitro selection for triplet polymerase activity. In a few lines:
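After PCR construction and transcription, each subunit's mutant library from a heterodimeric triplet polymerase ribozyme was annealed with a biotinylated primer, the partner subunit and triplets. Incubation was frozen, at −7 °C, and extended constructs were gel-excised, bound to streptavidin beads and amplified by RT-PCR, in one selection round done in triplicate. Fitness is the logarithm of a genotype's enrichment divided by that of the wild type, from inverse-variance-weighted replicate averages of Illumina-sequenced inputs and outputs. The base of the logarithm is 2, and genotypes needed ≥10 input reads and ≥1 read per output.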
Regarding GGAUCUUCUCGAUCUAACAAAAAAGACAAAUCUGACACAAAGCUUGAGAGCAUGUUCGGAUGCAGAGGCGGCAGCCUUCGGUAGCGCGAUAGCGCCAACGUUCUCAACUAUGACACGCAAAACGAGUGCUCCGUUGAAUGGAGUUUAUCAUG, the “polymerase ribozyme fitness (log ratio)” value is at most -4.2.

Take GGAUCUUCUCGAUCUAACAAAAAAGACAAAUCUGACACAAAGCUUGAGAGCAUCUUCGGAUGCAGAGGCGGCAGCCUUCGGUGGCGCGAUAGGGCCACUGUUCUCAACUAUGACACGCAAAACGCGUGCUCCGUUGAAUGCAGUUUAUCAUG: the “polymerase ribozyme fitness (log ratio)” value is at most -4.2.

For GGAUCUUCUCGAUCUAACAAAAAAGACAAAUCUGACACAAAGCUUGAGAGCAUGUUCGGAUGCAGAGGCGGCAGCCUUCGGUAGCGCGAUAGCGCCAACGUUCUCAACUAUGACACGCAAAACGCGUGCUCCGUUGAAUGGAGUUUAUCAUG, the “polymerase ribozyme fitness (log ratio)” value is at most -4.2.

Turning to GGAUCUUCUCGAUCUAACAAAAAAGACAAAUCUGACACAAAGCUUGAGAGCAUCUUCGGAUGCAGAGGCGGCAGCCUUCGGUGGCGCGAUGGCGCCAACGUUCUCAACUAUGACACGCAAAACGCGUGCUGCGUUGAAUGGAGUUUAUCAUG, the “polymerase ribozyme fitness (log ratio)” value was at most -4.2.

For GGAUCUUCUCGAUCUAACAAAAAAGACAAAUCUGACACAAAGCUUGAGAGUAUCUUCGGAUGCAGAGGCGGCAGCCUUCGGUGGCGCGAUAGCGGCAACGUUCUCAACUAUGACACGCAAAACGCGGGCUCCGUAGAAUGGAGUGUAUCAUG, the “polymerase ribozyme fitness (log ratio)” value is at most -4.2.

GGAUCUUCUCGAUCUAACAAAAAAGACAAAUCUGACACAAAGCUUGAGAGCAUCUUCGGAUGCAGAGGCGGCAGCCUUCGGUGGCGCGAUAGCGACAACGUUCUCAACUAUGACACGCAAAACGCGUUCUCCGUUGAAUGGAGUUUAUCAUA: the “polymerase ribozyme fitness (log ratio)” value is at most -4.2.

As for GGAUCUUCUCGAUCUAACAAAAAAGACAAAUCUGACACAAAGCUUGGGAGCAUCUUCGGAUGCAGAGGCGACAGCCUUCGGUGGCGCGAUAGCGCAAACGUUCUAAACUAUGACACGCAAAACGUGUGCUCCGUUGAAUGGAGUUUAUCAUG, the “polymerase ribozyme fitness (log ratio)” value is at most -4.2.

In the case of GGAUCUUCUCGAUCUAACAAAAAAGACAAAUCUGACACAAAGCUUGAGAGCCUCUUCGGAUGCAGAUCCGGCAGCUUUCGGUGGCGCGAUAGCGCCAACGUUCUCAACUAUGACUCGCACAACGCGUGCUCCGCUGAAUGGAGUUUAUCAUG, the “polymerase ribozyme fitness (log ratio)” value is at most -4.2.

In the case of GGAUCUUCUCGAUCUAACAAAAAAGACAAAUCUGACACAAAGCUUGAGAGCAUCUUCGGAUGCAGAGGCGGCAGCCUUCGGUGGCGCGAUAGCGCCAACGUUCUCAACUAUGGCACGCAAAACGCGUGCUCCGUUGAAUGGAGUUUAUCAUG, the “polymerase ribozyme fitness (log ratio)” value was at most -4.2.

With GGAUCUUCUCGAUCUAACAAAAAAGACAAAUCUGACACAAAGCUUGAGAGCAUAUUCGGAUGCAGAGGCGGCAGCCUUCGGUGGCGCCAUAGCACCAUCGUUCUUAACUAUGACACGCAAAACGCGCGCUCCGUUCAAUGGAGUUUAUCAUA, the “polymerase ribozyme fitness (log ratio)” value was at most -4.2.

In the case of GGAUCUUCUCGAUCUAACAAAAAAGACAAAUCUGACACAAAGCUUGAGAGCAUCUUCGGAUGCAGAGGCGGCAGCCUUCGGUGGCGCGAUAGCGCCAAUGUUCUCAACUAUGACACGCAAAACGCGUGCUCCGUUGAAUGCAGUUUAUCAUG, the “polymerase ribozyme fitness (log ratio)” value was at most -4.2.

As for GGAUCUUCUCGAUCUAACAAAAAAGACAAAUCUGACACAAAGCUUGAGAGCAUCUUUGGAUGCAGAGGCGGCAGCCUUCGGUGGCGCGAUGGCGACGACGUUCUCUACUAUGACACGCAAAACGCUUGCUCCGUUGAAUGUAGUUUAUCAUG, the “polymerase ribozyme fitness (log ratio)” value is at most -4.2.

In the case of GGAUCUUCUCGAUCUAACAAAAAAGACAAAUCUGACACAAAGCUUGAGAGCAUCUUCGGAUGCAGAGGCGGCAGCCUUCGGUGGCGUGAUAGCGCCAACGUUCUCAACUAUGACACGCAAAACGCGUGCUCCGUUGAAUGGAGUUUAUCAUG, the “polymerase ribozyme fitness (log ratio)” value was -4.03.

For GGAUCUUCUCGAUCUAACAAAAAAGACAAAUCUGACACAAAGCUUGAGAGCAUCUUCGGAUGCAGAGGCGGCAGCCUUCGGUGGCGGGAUAGCGCCAACGUUCUCAACUAUGACACGCAAAACGCGUGCUCCGUUGAAUGGAGUUUACCAUG, the “polymerase ribozyme fitness (log ratio)” value was at most -4.2.

For the variant GGAUCUUCUCGAUCUAACAAAAAAGACAAAUCUGACACAAAGUUUGAGAGCAUUUUCGGAAUCAGAGGCGGCAGCCUUCGGUGGCGCGAUAGCUCCAACGUUCUCAACUAUGACACGCAAAACGCGUGCUCCGUUGAAUGGAGUUUAUCAUU, the “polymerase ribozyme fitness (log ratio)” value is at most -4.2.

Take GGAUCUUCUCGAUCUAACAAAAAAGACAAAUCUGACACAAAGCUUGGGAGCAUCUUCGGAUGCAGAGGCGGCAGCCUUCGGUGUCGCUAUAGCGCCAACGUUCUCAACUAUGACACGCAAAACGCGUGCUCCGUUGAAUCGAGUUUAUCAUG: the “polymerase ribozyme fitness (log ratio)” value is at most -4.2.

GGAUCUUCUCGAUCUAACAAAAAAGACAAAUCUGACACAAAGCUUGAGCGCAUCUUCGGAUGCAGAGGCGGCAGCCUUCGGUGGUGCGAUAGCGCCAACGUUCUCAACUAUGACACGCAAAACGCGUGCUCCGUUGAAUGGAGUUUAUCAUG: the “polymerase ribozyme fitness (log ratio)” value is at most -4.2.

Turning to GGAUCUUCUCGAUCUAACAAAAAAGACAAAUCUGACACAAAGCUUGAGAGCAUCUUCGGAUGCAGAGGCGGCAGCCUUGGGUGGCGCGAUAGCGCCAACGUUCUCAACUAUGACACGCAAAACGCGUGCUCCGUUGAAUGGAGUUUAUCAAG, the “polymerase ribozyme fitness (log ratio)” value is at most -4.2.

Regarding GGAUCUUCUCGAUCUAACAAAAAAGACAAAUCUGACACAAAGCUUGAGAGCAUCUUCGGAUGCAGAGGCGGCAGGCUUCGGUGGCGCGAGAGCGCCAACGUUCUCAACUAUGACACGCAAAACGCGUGCUCCGUUGAAUGGAGUUGAUCAUG, the “polymerase ribozyme fitness (log ratio)” value is at most -4.2.

The record behind these values is the RNAGym collection of RNA variant scans (doi:10.1073/pnas.2313332121).
